Results published in paper PMC5533585.
Results are given in words; binding and its absence hold for the method and conditions named. In cells and extracts the contact can be indirect. Some results given as binding are weak or reduced against the parent protein; the word gives no strength. Sequences can lack the tags named with a protein.

T1: sfGFP-HOOK3 [553-718] with 3×FLAG (human) (UniProt Q86VS8)
T1 sequence: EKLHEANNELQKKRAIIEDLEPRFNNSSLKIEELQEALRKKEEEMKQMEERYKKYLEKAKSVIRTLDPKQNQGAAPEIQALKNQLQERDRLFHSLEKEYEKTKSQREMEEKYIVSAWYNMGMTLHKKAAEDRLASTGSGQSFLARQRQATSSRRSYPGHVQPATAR

T2: sfGFP-HOOK3 [1-718]-3×FLAG (human) (UniProt Q86VS8)
T2 sequence: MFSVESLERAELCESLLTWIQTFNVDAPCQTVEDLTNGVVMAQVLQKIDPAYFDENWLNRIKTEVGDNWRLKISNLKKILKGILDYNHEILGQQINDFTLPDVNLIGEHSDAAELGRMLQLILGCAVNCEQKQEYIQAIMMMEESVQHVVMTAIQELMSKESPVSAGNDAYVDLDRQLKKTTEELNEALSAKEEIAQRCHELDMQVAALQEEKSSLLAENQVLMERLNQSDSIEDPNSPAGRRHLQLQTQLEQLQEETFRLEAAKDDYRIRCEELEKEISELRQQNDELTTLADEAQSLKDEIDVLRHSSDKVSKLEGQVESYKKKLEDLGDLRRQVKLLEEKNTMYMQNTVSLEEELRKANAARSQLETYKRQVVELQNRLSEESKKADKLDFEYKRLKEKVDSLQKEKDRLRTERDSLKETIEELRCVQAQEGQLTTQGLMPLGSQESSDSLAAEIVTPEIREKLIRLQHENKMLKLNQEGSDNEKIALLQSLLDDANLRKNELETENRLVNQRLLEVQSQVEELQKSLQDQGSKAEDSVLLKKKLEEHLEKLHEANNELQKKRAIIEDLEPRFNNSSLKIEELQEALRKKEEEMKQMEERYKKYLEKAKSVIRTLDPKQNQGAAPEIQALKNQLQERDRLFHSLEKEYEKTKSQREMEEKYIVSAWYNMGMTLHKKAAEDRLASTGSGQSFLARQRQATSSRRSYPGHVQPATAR


How the values were obtained:
[1] = biological target: T1, sfGFP-HOOK3 [553-718] with 3×FLAG (human); assay: co-IP; transiently transfected HEK293-T cells; anti-FLAG M2 agarose, 2 hr, 4°C; elution with 3×FLAG peptide; Western blots with α-HC, α-p150, α-FAM160A2, α-KIF1C
[2] = biological target: T2, sfGFP-HOOK3 [1-718]-3×FLAG (human); assay: as above

| binding [1] | binding [2] | Binder |
| --- | --- | --- |
| binds | binds | FAM160A2/FHIP (protein, UniProt Q8N612 1-972) MERMNWLSRLASRGPGHRIPQGANLQTPVMADPETCLMVFKNHWSQVVRILERQGPRAAPGGADDLSAVRNHTYQMLTLLAEDRAVPSAPTGPGPLLEFALHEDLLTRVLTWQLQWDELGDGVEERRAEQLKLFEMLVSEARQPLLRHGPVREALLTLLDACGRPVPSSPALDEGLVLLLSQLCVCVAQEPSLLEFFLQPPPEPGAAPRLLLFSRLVPFVHREGTLGQQARDALLLLMALSAGSPTVGRYIADHSYFCPVLATGLSALYSSLPRKIEVPGDDWHCLRREDWLGVPALALFMSSLEFCNAVIQVAHPLVQKQLVDYIHNGFLVPVMGPALHKTSVEEMIASTAYLELFLRSISEPALLRTFLRFLLLHRHDTHTILDTLVARIGSNSRLCMVSLSLFRTLLNLSCEDVLLQLVLRYLVPCNHVMLSQKPAVRDVDLYGRAADKFLSLIPRCCRHHAPSPPRPEHASWARGPGSPSVDSSSVTTVPRPSTPSRLALFLRQQSLGGSESPGPAPCSPGLSASPASSPGRRPTPAEEPGELEDNYLEYLREARRGVDRCVRACRTWSAPYDGERPSPEPSPFGSRTKKRSLLPEEDRNNVGEGEEEELGRRGRAGGAGEGPGHLPPPQLNGVPGSWPEGAKKVRLVPKEGAGELLEGISEGMAGLEGFGQELRELEVALSNGGTGSESPLEPPLPLEEEEAYESFTCPPEPPGPFLSSPLRTLNQLPSQPFTGPFMAVLFAKLENMLQNSVYVNFLLTGLVAQLACHPQPLLRSFLLNTNMVFQPSVKSLLQVLGSVKNKIENFAASQEDFPALLSKAKKYLIARGKLDWAEGPAAGPAPRRSDPLVKSRRPSLGELLLRHAHSPTRARQAAQLVLQPGRDGAGLGLSGGSPGASTPVLLTRGGAPERQGEALRVKNAVYCAVIFPEFLKELAAISQAHAVTSPFLLETSEEGSGPLISGCGPLNP |
| binds | binds | KIF1C (protein, UniProt O43896 1-1103) MAGASVKVAVRVRPFNARETSQDAKCVVSMQGNTTSIINPKQSKDAPKSFTFDYSYWSHTSTEDPQFASQQQVYRDIGEEMLLHAFEGYNVCIFAYGQTGAGKSYTMMGRQEPGQQGIVPQLCEDLFSRVSENQSAQLSYSVEVSYMEIYCERVRDLLNPKSRGSLRVREHPILGPYVQDLSKLAVTSYADIADLMDCGNKARTVAATNMNETSSRSHAVFTIVFTQRCHDQLTGLDSEKVSKISLVDLAGSERADSSGARGMRLKEGANINKSLTTLGKVISALADMQSKKRKSDFIPYRDSVLTWLLKENLGGNSRTAMIAALSPADINYEETLSTLRYADRTKQIRCNAIINEDPNARLIRELQEEVARLRELLMAQGLSASALEGLKTEEGSVRGALPAVSSPPAPVSPSSPTTHNGELEPSFSPNTESQIGPEEAMERLQETEKIIAELNETWEEKLRKTEALRMEREALLAEMGVAVREDGGTVGVFSPKKTPHLVNLNEDPLMSECLLYHIKDGVTRVGQVDMDIKLTGQFIREQHCLFRSIPQPDGEVVVTLEPCEGAETYVNGKLVTEPLVLKSGNRIVMGKNHVFRFNHPEQARLERERGVPPPPGPPSEPVDWNFAQKELLEQQGIDIKLEMEKRLQDLENQYRKEKEEADLLLEQQRLYADSDSGDDSDKRSCEESWRLISSLREQLPPTTVQTIVKRCGLPSSGKRRAPRRVYQIPQRRRLQGKDPRWATMADLKMQAVKEICYEVALADFRHGRAEIEALAALKMRELCRTYGKPDGPGDAWRAVARDVWDTVGEEEGGGAGSGGGSEEGARGAEVEDLRAHIDKLTGILQEVKLQNSSKDRELQALRDRMLRMERVIPLAQDHEDENEEGGEVPWAPPEGSEAAEEAAPSDRMPSARPPSPPLSSWERVSRLMEEDPAFRRGRLRWLKQEQLRLQGLQGSGGRGGGLRRPPARFVPPHDCKLRFPFKSNPQHRESWPGMGSGEAPTPLQPPEEVTPHPATPARRPPSPRRSHHPRRNSLDGGGRSRGAGSAQPEPQHFQPKKHNSYPQPPQPYPAQRPPGPRYPPYTTPPRMRRQRSAPDLKESGAAV |
